Results from the supplement of paper PMC8728848.
The list shows a part of the results.

Tests used:
Test in all cases: glycan array binding signal (z-score within array); higher = stronger binding
Details in all cases: glycan notation: IUPAC condensed, linker removed
GlcNAc(b1-3)Gal(b1-4)Glc = target: GlcNAc(b1-3)Gal(b1-4)Glc
In short: (§1)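 Glycan array data came from 3228 arrays in the Consortium for Functional Glycomics database, and only arrays with an available protein sequence were kept. Glycan names were put into IUPAC-condensed notation, and columns mapping to the same glycan were averaged. The binding signal is a within-array Z-score, averaged across arrays of one protein sequence run at different concentrations or buffers and across linkers. A negative Z-score can be read as non-binding.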

[1] = target: GlcNAc(b1-3)Gal(b1-4)GlcNAc
In short: as §1

[2] = target: GlcNAc(b1-3)Gal(b1-4)GlcNAc(b1-2)Man(a1-3)[GlcNAc(b1-3)Gal(b1-4)GlcNAc(b1-2)Man(a1-6)]Man(b1-4)GlcNAc(b1-4)GlcNAc
In short: as §1

[3] = target: GlcNAc(b1-3)Gal(b1-4)GlcNAc(b1-2)Man(a1-3)[GlcNAc(b1-3)Gal(b1-4)GlcNAc(b1-2)Man(a1-6)]Man(b1-4)GlcNAc(b1-4)[Fuc(a1-6)]GlcNAc
In short: as §1

[4] = target: GlcNAc(b1-3)Gal(b1-4)GlcNAc(b1-2)[GlcNAc(b1-3)Gal(b1-4)GlcNAc(b1-6)]Man(a1-6)[GlcNAc(b1-3)Gal(b1-4)GlcNAc(b1-2)Man(a1-3)]Man(b1-4)GlcNAc(b1-4)GlcNAc
In short: as §1

[5] = target: GlcNAc(b1-3)Gal(b1-4)GlcNAc(b1-3)Gal(b1-4)GlcNAc
In short: as §1

[6] = target: GlcNAc(b1-3)Gal(b1-4)GlcNAc(b1-3)Gal(b1-4)GlcNAc(b1-2)Man(a1-3)[GlcNAc(b1-3)Gal(b1-4)GlcNAc(b1-3)Gal(b1-4)GlcNAc(b1-2)Man(a1-6)]Man(b1-4)GlcNAc(b1-4)GlcNAc
In short: as §1

[7] = target: GlcNAc(b1-3)Gal(b1-4)GlcNAc(b1-3)Gal(b1-4)GlcNAc(b1-2)Man(a1-3)[GlcNAc(b1-3)Gal(b1-4)GlcNAc(b1-3)Gal(b1-4)GlcNAc(b1-2)Man(a1-6)]Man(b1-4)GlcNAc(b1-4)[Fuc(a1-6)]GlcNAc
In short: as §1

[8] = target: GlcNAc(b1-3)Gal(b1-4)GlcNAc(b1-3)Gal(b1-4)GlcNAc(b1-2)[GlcNAc(b1-3)Gal(b1-4)GlcNAc(b1-3)Gal(b1-4)GlcNAc(b1-6)]Man(a1-6)[GlcNAc(b1-3)Gal(b1-4)GlcNAc(b1-3)Gal(b1-4)GlcNAc(b1-2)Man(a1-3)]Man(b1-4)GlcNAc(b1-4)[Fuc(a1-6)]GlcNAc
In short: as §1

[9] = target: GlcNAc(b1-3)Gal(b1-4)GlcNAc(b1-3)Gal(b1-4)GlcNAc(b1-3)Gal(b1-4)GlcNAc(b1-2)Man(a1-3)[GlcNAc(b1-3)Gal(b1-4)GlcNAc(b1-3)Gal(b1-4)GlcNAc(b1-3)Gal(b1-4)GlcNAc(b1-2)Man(a1-6)]Man(b1-4)GlcNAc(b1-4)GlcNAc
In short: as §1

[10] = target: GlcNAc(b1-3)Gal(b1-4)GlcNAc(b1-3)Gal(b1-4)GlcNAc(b1-3)Gal(b1-4)GlcNAc(b1-2)Man(a1-3)[GlcNAc(b1-3)Gal(b1-4)GlcNAc(b1-3)Gal(b1-4)GlcNAc(b1-3)Gal(b1-4)GlcNAc(b1-2)Man(a1-6)]Man(b1-4)GlcNAc(b1-4)[Fuc(a1-6)]GlcNAc
In short: as §1

[11] = target: GlcNAc(b1-3)Gal(b1-4)GlcNAc(b1-3)Gal(b1-4)GlcNAc(b1-3)Gal(b1-4)GlcNAc(b1-2)[GlcNAc(b1-3)Gal(b1-4)GlcNAc(b1-3)Gal(b1-4)GlcNAc(b1-3)Gal(b1-4)GlcNAc(b1-6)]Man(a1-6)[GlcNAc(b1-3)Gal(b1-4)GlcNAc(b1-3)Gal(b1-4)GlcNAc(b1-3)Gal(b1-4)GlcNAc(b1-2)Man(a1-3)]Man(b1-4)GlcNAc(b1-4)[Fuc(a1-6)]GlcNAc
In short: as §1

[12] = target: GlcNAc(b1-3)Gal(b1-4)GlcNAc(b1-3)Gal(b1-4)GlcNAc(b1-3)Gal(b1-4)GlcNAc(b1-3)Gal(b1-4)GlcNAc(b1-2)Man(a1-3)[GlcNAc(b1-3)Gal(b1-4)GlcNAc(b1-3)Gal(b1-4)GlcNAc(b1-3)Gal(b1-4)GlcNAc(b1-3)Gal(b1-4)GlcNAc(b1-2)Man(a1-6)]Man(b1-4)GlcNAc(b1-4)GlcNAc
In short: as §1

[13] = target: GlcNAc(b1-3)Gal(b1-4)GlcNAc(b1-3)Gal(b1-4)GlcNAc(b1-3)Gal(b1-4)GlcNAc(b1-3)Gal(b1-4)GlcNAc(b1-2)Man(a1-3)[GlcNAc(b1-3)Gal(b1-4)GlcNAc(b1-3)Gal(b1-4)GlcNAc(b1-3)Gal(b1-4)GlcNAc(b1-3)Gal(b1-4)GlcNAc(b1-2)Man(a1-6)]Man(b1-4)GlcNAc(b1-4)[Fuc(a1-6)]GlcNAc
In short: as §1

[14] = target: GlcNAc(b1-3)Gal(b1-4)GlcNAc(b1-3)Gal(b1-4)GlcNAc(b1-3)Gal(b1-4)GlcNAc(b1-3)Gal(b1-4)GlcNAc(b1-2)[GlcNAc(b1-3)Gal(b1-4)GlcNAc(b1-3)Gal(b1-4)GlcNAc(b1-3)Gal(b1-4)GlcNAc(b1-3)Gal(b1-4)GlcNAc(b1-6)]Man(a1-6)[GlcNAc(b1-3)Gal(b1-4)GlcNAc(b1-3)Gal(b1-4)GlcNAc(b1-3)Gal(b1-4)GlcNAc(b1-3)Gal(b1-4)GlcNAc(b1-2)Man(a1-3)]Man(b1-4)GlcNAc(b1-4)[Fuc(a1-6)]GlcNAc
In short: as §1

[15] = target: GlcNAc(b1-3)Gal(b1-4)GlcNAc(b1-3)Gal(b1-4)GlcNAc(b1-3)GalNAc
In short: as §1

[16] = target: GlcNAc(b1-3)Gal(b1-4)GlcNAc(b1-3)GalNAc
In short: as §1

[17] = target: GlcNAc(b1-3)Gal(b1-4)GlcNAc(b1-3)[GlcNAc(b1-3)Gal(b1-4)GlcNAc(b1-3)]GalNAc
In short: as §1

[18] = target: GlcNAc(b1-3)Gal(b1-4)GlcNAc(b1-6)[Gal(b1-3)]GalNAc
In short: as §1

[19] = target: GlcNAc(b1-3)Gal(b1-4)GlcNAc(b1-6)[GlcNAc(b1-3)Gal(b1-3)]GalNAc
In short: as §1

[20] = target: GlcNAc(b1-3)Gal(b1-4)GlcNAc(b1-6)[GlcNAc(b1-3)]Gal(b1-4)GlcNAc
In short: as §1

GlcNAc(b1-3)GalNAc = target: GlcNAc(b1-3)GalNAc
In short: as §1

GlcNAc(b1-3)Man = target: GlcNAc(b1-3)Man
In short: as §1

[21] = target: GlcNAc(b1-3)[GlcNAc(b1-4)][GlcNAc(b1-6)]GlcNAc
In short: as §1

[22] = target: GlcNAc(b1-3)[GlcNAc(b1-6)]Gal(b1-4)GlcNAc
In short: as §1

[23] = target: GlcNAc(b1-3)[GlcNAc(b1-6)]GalNAc
In short: as §1

[24] = target: GlcNAc(b1-4)Gal(b1-4)GlcNAc
In short: as §1

GlcNAc(b1-4)GlcNAc = target: GlcNAc(b1-4)GlcNAc
In short: as §1

[25] = target: GlcNAc(b1-4)GlcNAc(b1-4)GlcNAc
In short: as §1

[26] = target: GlcNAc(b1-4)GlcNAc(b1-4)GlcNAc(b1-4)GlcNAc(b1-4)GlcNAc
In short: as §1

[27] = target: GlcNAc(b1-4)GlcNAc(b1-4)GlcNAc(b1-4)GlcNAc(b1-4)GlcNAc(b1-4)GlcNAc
In short: as §1

[28] = target: GlcNAc(b1-4)[GlcNAc(b1-6)]GalNAc
In short: as §1

[29] = target: GlcNAc(b1-6)Gal(b1-4)GlcNAc
In short: as §1

GlcNAc(b1-6)GalNAc = target: GlcNAc(b1-6)GalNAc
In short: as §1

[30] = target: GlcNAc6S(b1-3)Gal(b1-4)GlcNAc
In short: as §1

Kdn(a2-3)Gal(b1-3)GalNAc = target: Kdn(a2-3)Gal(b1-3)GalNAc
In short: as §1

Kdn(a2-3)Gal(b1-3)GlcNAc = target: Kdn(a2-3)Gal(b1-3)GlcNAc
In short: as §1

Kdn(a2-3)Gal(b1-4)Glc = target: Kdn(a2-3)Gal(b1-4)Glc
In short: as §1

Kdn(a2-3)Gal(b1-4)GlcNAc = target: Kdn(a2-3)Gal(b1-4)GlcNAc
In short: as §1

[31] = target: Kdn(a2-3)Gal(b1-4)[Fuc(a1-3)]GlcNAc
In short: as §1

Kdn(a2-6)Gal(b1-4)GlcNAc = target: Kdn(a2-6)Gal(b1-4)GlcNAc
In short: as §1

[32] = target: Man(a1-2)Man(a1-2)Man(a1-3)Man
In short: as §1

[33] = target: Man(a1-2)Man(a1-2)Man(a1-6)[Man(a1-3)]Man
In short: as §1

Man(a1-2)Man(a1-3)Man = target: Man(a1-2)Man(a1-3)Man
In short: as §1

[34] = target: Man(a1-2)Man(a1-3)[Man(a1-2)Man(a1-6)]Man
In short: as §1

B1: GNL (Galanthus nivalis) (protein)
chain: MGHHHHHHHHYGTLENGHWLMVGMSIFSKDRTVELRMQDDGKLAIYYNDHCAWQSTAQQVNNAKGAVMQGDGNFCIYDKNGKATWHTNTAAPSGDSHTFVSVQDDGNLVLYKNNGATPIWSSKSNK
- glycan array binding signal (z-score) (GlcNAc(b1-3)Gal(b1-4)Glc): -0.193
- glycan array binding signal (z-score) [1]: -0.226
- glycan array binding signal (z-score) [2]: 0.679
- glycan array binding signal (z-score) [3]: 1.94
- glycan array binding signal (z-score) [4]: -0.156
- glycan array binding signal (z-score) [5]: -0.173
- glycan array binding signal (z-score) [6]: 0.148
- glycan array binding signal (z-score) [7]: 0.898
- glycan array binding signal (z-score) [8]: -0.103
- glycan array binding signal (z-score) [9]: 0.13
- glycan array binding signal (z-score) [10]: 0.37
- glycan array binding signal (z-score) [11]: -0.147
- glycan array binding signal (z-score) [12]: -0.009
- glycan array binding signal (z-score) [13]: 0.067
- glycan array binding signal (z-score) [14]: -0.12
- glycan array binding signal (z-score) [15]: -0.245
- glycan array binding signal (z-score) [16]: -0.013
- glycan array binding signal (z-score) [17]: -0.182
- glycan array binding signal (z-score) [18]: -0.216
- glycan array binding signal (z-score) [19]: -0.125
- glycan array binding signal (z-score) [20]: -0.255
- glycan array binding signal (z-score) (GlcNAc(b1-3)GalNAc): -0.174
- glycan array binding signal (z-score) (GlcNAc(b1-3)Man): -0.202
- glycan array binding signal (z-score) [21]: -0.102
- glycan array binding signal (z-score) [22]: -0.188
- glycan array binding signal (z-score) [23]: -0.224
- glycan array binding signal (z-score) [24]: -0.245
- glycan array binding signal (z-score) (GlcNAc(b1-4)GlcNAc): -0.202
- glycan array binding signal (z-score) [25]: -0.258
- glycan array binding signal (z-score) [26]: -0.122
- glycan array binding signal (z-score) [27]: -0.24
- glycan array binding signal (z-score) [28]: -0.138
- glycan array binding signal (z-score) [29]: -0.16
- glycan array binding signal (z-score) (GlcNAc(b1-6)GalNAc): -0.208
- glycan array binding signal (z-score) [30]: -0.28
- glycan array binding signal (z-score) (Kdn(a2-3)Gal(b1-3)GalNAc): -0.131
- glycan array binding signal (z-score) (Kdn(a2-3)Gal(b1-3)GlcNAc): -0.225
- glycan array binding signal (z-score) (Kdn(a2-3)Gal(b1-4)Glc): -0.171
- glycan array binding signal (z-score) (Kdn(a2-3)Gal(b1-4)GlcNAc): -0.152
- glycan array binding signal (z-score) [31]: -0.233
- glycan array binding signal (z-score) (Kdn(a2-6)Gal(b1-4)GlcNAc): -0.17
- glycan array binding signal (z-score) [32]: -0.3
- glycan array binding signal (z-score) [33]: -0.206
- glycan array binding signal (z-score) (Man(a1-2)Man(a1-3)Man): -0.18
- glycan array binding signal (z-score) [34]: -0.244
